According to PubChem BioAssay AID1347055 (National Center for Advancing Translational Sciences (NCATS), 2019):
“And” between values parts separate entries of the source, which are not always exact repeats. Equal values may be shown once. About 120 (0.22%) of roughly 54,000 compounds were called active. The shares of active, inactive and inconclusive entries below differ from those in the screen. The call rests on the fitted dose curve; in most records, active means well fitted inhibition curve with a large enough effect; inconclusive means small, poorly fitted or top-dose-only effect, or effect the other way; inactive means flat fitted curve, though single readings scatter. No potency is given beside an inconclusive call; the fits are too rough.

Target: Fumarate hydratase, mitochondrial (Homo sapiens) (UniProt P07954)
UniProt P07954, sequence (P07954 whole entry, looked up): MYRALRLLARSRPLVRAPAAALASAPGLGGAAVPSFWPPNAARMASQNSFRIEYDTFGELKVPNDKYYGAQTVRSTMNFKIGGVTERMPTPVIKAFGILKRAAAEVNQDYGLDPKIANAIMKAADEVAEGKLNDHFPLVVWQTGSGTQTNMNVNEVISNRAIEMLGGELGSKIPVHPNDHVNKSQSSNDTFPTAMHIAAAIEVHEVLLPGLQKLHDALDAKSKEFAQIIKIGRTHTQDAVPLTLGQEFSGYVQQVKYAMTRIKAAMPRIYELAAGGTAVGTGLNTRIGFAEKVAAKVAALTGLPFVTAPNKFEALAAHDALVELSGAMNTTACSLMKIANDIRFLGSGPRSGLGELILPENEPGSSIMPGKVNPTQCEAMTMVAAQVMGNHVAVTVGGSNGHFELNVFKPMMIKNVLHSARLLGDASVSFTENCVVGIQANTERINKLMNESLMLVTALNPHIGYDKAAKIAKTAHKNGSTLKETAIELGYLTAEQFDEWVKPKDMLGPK
Assay: Identification of activators of human fumarate hydratase by quantitative high-throughput screening; further: the screen sought activators but most active calls are inhibition curves; nearly all actives have a fitted effect of over 45% in size
Conditions: FH coupled MDH/diaphorase resazurin fluorescence, 15 min; activity change, negative = inhibition: at 79.9 µM (top of the series)
On the % scale 0 is the no-effect control and ±100 the full control effect; potency means the concentration at half of the fitted maximal effect; tags describe the fitted curve by direction and shape.

**Q.** Which Potency does the source give for `CC(C)(F)C[C@@H](N[C@@H](c1ccc(-c2ccc(S(C)(=O)=O)cc2)cc1)C(F)(F)F)C(=O)NC1(C#N)CC1` here?
**A.** The Potency was “inactive”.

**Q.** Which Potency does the source give for `CN1C(=O)CC(C)(c2ccccc2)C1=O` (stereo not drawn) here?
**A.** The Potency was “inactive”.

**Q.** With `CCOc1ccc(CCNC(=O)c2ccc3c(c2)c(C)c(C)n3C)cc1` as the compound, how does the Potency read?
**A.** Its Potency is active: 15.8 µM.

**Q.** With `CCOC(=O)C(CCc1ccccc1)NC1CSC(c2cccs2)CN(CC(=O)O)C1=O` (stereo not drawn) as the compound, how does the Potency read?
**A.** The Potency was “inactive”.

**Q.** Which Potency does the source give for `CCOC(=O)c1cnn(-c2ccc(OC)cc2)c1C1CCN(C(=O)OC(C)(C)C)CC1` here?
**A.** The Potency was inconclusive [inhibitor, partial curve, poor fit].

**Q.** Which Potency does the source give for `Cc1cccc(-c2nc(SCc3ccc(Br)cc3)n3[nH]c(=O)cc3n2)c1` here?
**A.** Its Potency is inconclusive [inhibitor, partial curve].

**Q.** For `Cc1ccc(C(=O)Nc2c(-c3ccccc3)nc3ccccn23)cc1C`, which Potency is on record?
**A.** The Potency was “inactive”.

**Q.** How did the Potency turn out when `Cc1nn(-c2ccc(F)cc2)c(-n2cccc2)c1C(=O)N1CCN(c2ccc(F)cc2)CC1` was run?
**A.** Its Potency is “inactive”.

**Q.** Which Potency does the source give for `COc1ccc2c(CNCC(C)c3ccccc3)c(C(=O)O)n(Cc3ccc(F)cc3Cl)c2c1` (stereo not drawn) here?
**A.** The Potency was inconclusive [inhibitor, partial curve].

**Q.** With `CC1CCN(S(=O)(=O)c2ccc3c(c2)N(CC(=O)NCc2ccccc2)C(=O)CO3)CC1` as the compound, how does the Potency read?
**A.** Its Potency is inconclusive [inhibitor, partial curve, poor fit].

**Q.** With `Cc1cc(OC(C)C(=O)N2CCN(CCc3ccccn3)CC2)ccc1Cl` (stereo not drawn) as the compound, how does the Potency read?
**A.** Its Potency is inconclusive [inhibitor, partial curve, poor fit].

**Q.** With `CN(C)c1ccc(CN2CCc3nc(N4CCN(c5ccccn5)CC4)ncc3C2)cc1` as the compound, how does the Potency read?
**A.** The Potency was inconclusive [inhibitor, partial curve, poor fit].

**Q.** How did the Potency turn out when `CC(C)N(Cc1ccccc1)C(=O)c1cc2ccc3cccnc3c2[nH]1` was run?
**A.** Its Potency is inconclusive [inhibitor, partial curve, poor fit].

**Q.** How did the Potency turn out when `COc1ccc(Nc2ncc(C(=O)N3CCN(c4ccc(OC)cc4)CC3)c3ccccc23)cc1` was run?
**A.** Its Potency is inconclusive [inhibitor, partial curve, poor fit].

**Q.** How did the Potency turn out when `COc1cc(OC)cc(C(=O)NCCc2csc(-c3cccc(C)c3)n2)c1` was run?
**A.** Its Potency is inconclusive [inhibitor, partial curve, poor fit].

**Q.** How did the Potency turn out when `CC1CCCCN1C(=O)c1ccc2c(c1)N(Cc1ccc(Cl)cc1)C(=O)c1ccccc1S2=O` (stereo not drawn) was run?
**A.** The Potency was inconclusive [inhibitor, partial curve, poor fit].

**Q.** `COc1ccc(NC(=O)c2c(NCc3cccs3)sc3c2CCCCC3)cc1` was tested. Which Potency did it give?
**A.** Its Potency is inconclusive [inhibitor, partial curve, poor fit].

**Q.** How did the Potency turn out when `CN(C1CCCCC1)S(=O)(=O)c1ccc(F)c(C(=O)Nc2ccc(C(F)(F)F)cc2)c1` was run?
**A.** The Potency was inconclusive [inhibitor, full curve, poor fit].

**Q.** How did the Potency turn out when `CCc1ccc(NC(=O)CSc2nc(-c3ccccc3)no2)cc1` was run?
**A.** Its Potency is inconclusive [inhibitor, single point].

**Q.** Which Potency does the source give for `CN(C)S(=O)(=O)N(CC(=O)Nc1ccc(Br)cc1F)c1ccccc1` here?
**A.** The Potency was inconclusive [inhibitor, single point].

**Q.** `COc1ccc2c(CNCc3ccco3)c(C(=O)O)n(Cc3ccc(F)cc3Cl)c2c1` was tested. Which Potency did it give?
**A.** Its Potency is inconclusive [inhibitor, partial curve].

**Q.** `COc1ccc(C)cc1NC(=O)C1CCCN(S(=O)(=O)c2ccc3c(c2)CCCN3C(C)=O)C1` (stereo not drawn) was tested. Which Potency did it give?
**A.** The Potency was inconclusive [activator, single point].

**Q.** `CCCn1c(/C=C/c2ccccc2)nc2ccccc21` was tested. Which Potency did it give?
**A.** The Potency was “inactive”.

**Q.** For `COc1ccc(C)cc1NC(=O)c1ccc2nc(Cc3ccccc3)oc2c1`, which Potency is on record?
**A.** Its Potency is inconclusive [inhibitor, partial curve, poor fit].

**Q.** `CCn1c(CN2CCCCC2)nc2cc(NC(=O)COc3ccccc3C(C)(C)C)ccc21` was tested. Which Potency did it give?
**A.** Its Potency is “inactive”.

**Q.** For `Cc1cccc(N2CCN(C(=O)c3cc4c(=O)[nH]c5ccc(C)cc5c4s3)CC2C)c1` (stereo not drawn), which Potency is on record?
**A.** The Potency was inconclusive [inhibitor, partial curve, poor fit].

**Q.** How did the Potency turn out when `CCCN(CCC)C(=O)c1c[nH]c2ccc(S(=O)(=O)N(C)c3ccc(OCC)cc3)cc2c1=O` was run?
**A.** The Potency was “inactive”.

**Q.** With `COc1ccc(CCNC(=O)c2ccc3c(Cl)c4c(nc3c2)CCCC4)cc1OC` as the compound, how does the Potency read?
**A.** The Potency was inconclusive [inhibitor, single point].

**Q.** With `COc1cccc(NC(c2nnc(-c3ccccc3)o2)c2ccc(F)cc2Cl)c1` (stereo not drawn) as the compound, how does the Potency read?
**A.** The Potency was inconclusive [inhibitor, single point].

**Q.** For `COc1ccc(C(C(=O)Nc2ccc(C(C)C)cc2)N(C)C(=O)Cc2cccs2)cc1` (stereo not drawn), which Potency is on record?
**A.** Its Potency is inconclusive [inhibitor, partial curve].

**Q.** With `O=C(Cc1csc2ccccc12)NCc1ccc(F)cc1` as the compound, how does the Potency read?
**A.** Its Potency is “inactive”.

**Q.** With `Cc1cc(C)c(/C=C/c2onc(C)c2S(=O)(=O)N2CCC(C(=O)NCCc3ccccc3)CC2)c(C)c1` as the compound, how does the Potency read?
**A.** The Potency was inconclusive [inhibitor, partial curve, poor fit].

**Q.** `Nc1c(C(=O)Nc2ccccc2)sc2nc3c(cc12)CN(Cc1ccccc1)CC3` was tested. Which Potency did it give?
**A.** Its Potency is inconclusive [inhibitor, partial curve, poor fit].

**Q.** `CCN(CC)c1ccc(C2Nc3ccccc3-c3cc(C)nn32)cc1` (stereo not drawn) was tested. Which Potency did it give?
**A.** The Potency was inconclusive [inhibitor, single point].

**Q.** Which Potency does the source give for `COc1ccc([C@H]2Cc3cccc(O)c3C(=O)O2)cc1` here?
**A.** Its Potency is “inactive”.

**Q.** With `Cc1ccc(CNc2ccc3cc(S(=O)(=O)N4CCCCC4)ccc3n2)cc1` as the compound, how does the Potency read?
**A.** Its Potency is inconclusive [inhibitor, single point].

**Q.** Which Potency does the source give for `Nc1c(S(=O)(=O)O)cc(Nc2ccc(Nc3nc(Cl)nc(Nc4ccc(S(=O)(=O)O)cc4)n3)c(S(=O)(=O)O)c2)c2c1C(=O)c1ccccc1C2=O` here?
**A.** Its Potency is active: 5.01 µM.

**Q.** With `COc1cc(NC(=O)CN2C(=O)c3ccccc3Sc3ccc(C(=O)N4CCCC4)cc32)cc(OC)c1` as the compound, how does the Potency read?
**A.** Its Potency is inconclusive [inhibitor, partial curve, poor fit].

**Q.** Which Potency does the source give for `CCOC(=O)c1ccccc1NC(=O)CN1CCCN(Cc2cc(C)ccc2C)S1(=O)=O` here?
**A.** Its Potency is inconclusive [inhibitor, partial curve, poor fit].

**Q.** Which Potency does the source give for `CCCc1nn2c(=O)cc(COC(=O)c3cccc(NC(=O)c4cccs4)c3)nc2s1` here?
**A.** Its Potency is inconclusive [inhibitor, single point].

**Q.** How did the Potency turn out when `COc1cccc(Cn2c(=O)cc(C)c3c(C)nn(C)c32)c1` was run?
**A.** Its Potency is “inactive”.

**Q.** For `Cc1ccccc1NC(=O)c1ccc2[nH]c(C)c(C)c2c1`, which Potency is on record?
**A.** The Potency was “inactive”.

**Q.** `CC(C)c1ccc(NC(=O)C2CCN(S(=O)(=O)c3cccc4nonc34)CC2)cc1` was tested. Which Potency did it give?
**A.** Its Potency is “inactive”.

**Q.** `Oc1ccc(Nc2nc(-c3ccc(Cl)cc3)cs2)cc1` was tested. Which Potency did it give?
**A.** Its Potency is inconclusive [inhibitor, single point].

**Q.** How did the Potency turn out when `Cc1ccc(O)c(C(CC(=O)NCC2(c3ccccc3)CCCC2)c2ccccc2)c1` (stereo not drawn) was run?
**A.** The Potency was inconclusive [inhibitor, partial curve, poor fit].

**Q.** Which Potency does the source give for `COc1ccc(OC)c(NC(=O)Cc2coc3ccc(C(C)C)cc23)c1` here?
**A.** Its Potency is inconclusive [inhibitor, single point].

**Q.** For `CCOC(=O)CSc1nc2ccc(NC(=O)c3ccc(C)cc3)cc2s1`, which Potency is on record?
**A.** The Potency was “inactive”.

**Q.** With `CCN(CC)CCCC(C)Nc1c2ccc(Cl)cc2nc2ccc(OC)cc12` (stereo not drawn) as the compound, how does the Potency read?
**A.** Its Potency is “inactive”.

**Q.** With `CCOC(=O)c1cc(-c2ccccc2)n(-c2cccc(C(=O)Nc3ccc(F)c(F)c3)c2)c1C` as the compound, how does the Potency read?
**A.** Its Potency is inconclusive [inhibitor, partial curve, poor fit].

**Q.** Which Potency does the source give for `Cc1c2cnn(CC(=O)N3CCN(c4ccc(F)cc4)CC3)c(=O)c2c(C)n1Cc1ccc(F)cc1` here?
**A.** The Potency was inconclusive [inhibitor, partial curve].

**Q.** For `CC(C)(C)NS(=O)(=O)c1cncc(-c2cc(F)c3nc(N)nn3c2)c1`, which Potency is on record?
**A.** Its Potency is “inactive”.

**Q.** `Cc1ccc(NC2=C(c3ccc(C(F)(F)F)cc3)C(=O)c3ccccc32)cc1C` was tested. Which Potency did it give?
**A.** The Potency was inconclusive [activator, partial curve, poor fit].

**Q.** How did the Potency turn out when `O=C(NCc1cccc(Cl)c1)c1cc2c(s1)-c1ccccc1OC2` was run?
**A.** Its Potency is “inactive”.

**Q.** For `O=C(CN1C(=O)COc2ccc(S(=O)(=O)N3CCCCCC3)cc21)NCc1ccc(Cl)cc1`, which activity change, negative = inhibition is on record?
**A.** Its activity change, negative = inhibition is inconclusive: -34.2% [inhibitor].

**Q.** With `COc1cc(C=O)ccc1O` as the compound, how does the Potency read?
**A.** The Potency was “inactive”.

**Q.** With `CCCN(C(=O)c1cc2c(Cl)nc3ccccc3c2s1)c1cccc(C)c1` as the compound, how does the Potency read?
**A.** Its Potency is inconclusive [inhibitor, partial curve, poor fit].

**Q.** With `CCOc1cc(CNc2ccc(O)cc2)cc(Br)c1OCc1ccccc1` as the compound, how does the Potency read?
**A.** The Potency was inconclusive [inhibitor, partial curve, poor fit].

**Q.** `CC1=C(C)C(=O)C(CCCCC#CCCCC#CCO)=C(C)C1=O` was tested. Which Potency did it give?
**A.** The Potency was active: 13.8 µM and active: 28.2 µM.

**Q.** `CC(C)(C)OC(=O)N1CCC(c2c(C(=O)NCc3ccc4c(c3)OCO4)cnn2-c2ccc(F)cc2F)CC1` was tested. Which Potency did it give?
**A.** Its Potency is inconclusive [inhibitor, single point].

**Q.** With `COc1ccc(CNC(=O)c2cnn3c(C)c(Cc4ccc(F)cc4)c(C)nc23)cc1` as the compound, how does the Potency read?
**A.** Its Potency is inconclusive [inhibitor, single point].

**Q.** Which Potency does the source give for `CCOc1ccccc1NC(=O)Cn1c(=O)n(Cc2ccccc2)c(=O)c2c(C)c(C(=O)N(C)C)sc21` here?
**A.** The Potency was inconclusive [inhibitor, partial curve, poor fit].

**Q.** Which Potency does the source give for `Cc1ccc(-c2cn3c(n2)sc2cc(C(=O)N4CCCCC4)ccc23)cc1` here?
**A.** The Potency was inconclusive [inhibitor, partial curve, poor fit].

**Q.** How did the Potency turn out when `CCC(C(=O)OCc1cc(=O)n2nc(CCOC)sc2n1)c1ccccc1` (stereo not drawn) was run?
**A.** Its Potency is inconclusive [inhibitor, single point].
